Source: the supplement of paper PMC5499739
Over roughly 16,000 sequences, “Z-score” has its median near -0.37; the highest 2% begin near 3.1. This is one part of the list.

tested on: RBM10 RRM1-ZnF-RRM2 (GST-tagged construct); experiment: RNAcompete 7-mer binding Z-score; higher = stronger binding preference
Method in brief: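 GST-tagged RBM10 constructs (20 pmol) and a designed pool of 241 399 RNAs up to 41 nt (1.5 nmol) were allowed to bind for 30 min at 4°C in 1 ml Hepes pH 7.8 buffer with glutathione Sepharose beads. After four 2-min washes at 4°C, bound RNA was identified by microarray hybridisation. Enrichment was scored per heptamer motif as a one-sided Z-score across the probes containing it.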

Row | Sequence | RNAcompete 7-mer binding Z-score
1 | UUUCUAA | -0.592
2 | CGUUGGG | 1.88
3 | CAUAGUA | -0.078
4 | ACGUCUU | -0.763
5 | AGCUCCG | -0.803
6 | CUGUCAA | -0.646
7 | AUCGGUU | -0.289
8 | UUGCCUA | -0.763
9 | UCAGCUG | -0.522
10 | CGGACUU | -0.344
11 | AGAAGUC | -0.395
12 | ACACAUU | -0.744
13 | GGGCGGA | 3.09
14 | CACUAUA | -0.519
15 | GUAUAGU | 0.239
16 | CCGACCC | -0.792
17 | UACCCAG | -0.748
18 | CGUGAUG | 0.625
19 | GCCGGGA | 0.836
20 | CAAUUAU | -0.602
21 | GGCGGGA | 3.23
22 | AUGAAAG | 1.01
23 | AUUUGGA | 0.632

Row | Sequence | RNAcompete 7-mer binding Z-score
24 | CCGCCCC | -0.774
25 | AUGAUCG | -0.0634
26 | CGCGGCC | -0.417
27 | GUGAGUA | 1.18
28 | UGUUACA | -0.449
29 | UACGCGU | -0.347
30 | UCGCACG | -0.103
31 | UUAAGAG | 0.374
32 | GGGUGUU | 2.46
33 | AACGGUA | 0.898
34 | UAUGAGU | 0.173
35 | UAGCACG | -0.154
36 | GAACACA | -0.0233
37 | AUAGUGC | 0.192
38 | CAAUGAG | 0.891
39 | UGCCCAA | -0.741
40 | CGGUUAC | 0.148
41 | UUGCUUC | -0.785
42 | CUCUCAC | -0.821
43 | UUAAUGA | -0.315
44 | AAGUCUU | -0.697
45 | AAUGGAG | 3.01
46 | CGAAGAG | 0.399

Row | Sequence | RNAcompete 7-mer binding Z-score
47 | CAAGAAU | -0.344
48 | CCAUGCG | -0.395
49 | UGAUUAC | -0.439
50 | AUGCUUA | -0.704
51 | ACGAGAC | -0.0561
52 | UACGUAA | -0.169
53 | GGAACUA | 0.304
54 | GUUUCAC | -0.493
55 | CUUCUUU | -0.868
56 | AUACCGG | -0.00877
57 | CUUUCCA | -0.814
58 | CACCAAG | -0.358
59 | AAGAGAU | 0.385
60 | AAAUAUA | -0.169
61 | GAAUGAC | 0.184
62 | GCCCCAU | -0.803
63 | CUGGUUC | -0.672
64 | ACAAAUA | -0.26
65 | UGCGGAG | 1.43
66 | GCGUUGA | -0.0925
67 | UUGGAUC | -0.3
68 | UACCCAA | -0.734
69 | GAUCGGA | 0.785

Row | Sequence | RNAcompete 7-mer binding Z-score
70 | UCAUACG | -0.5
71 | CUAACGC | -0.85
72 | UGUCCAG | -0.643
73 | CGUCACU | -0.515
74 | AGACCAG | -0.464
75 | AAGCACG | -0.111
76 | GCAGCCA | -0.296
77 | UGACGCA | -0.107
78 | AACUUGC | -0.737
79 | CCGCGGA | 0.144
80 | CCGAGAC | -0.519
81 | UUGUAAU | -0.559
82 | GGCAUGU | 0.632
83 | GUGAUGU | 0.326
84 | GUGCAUA | 0.141
85 | GUGCGGA | 2.04
86 | AAGCUGU | -0.639
87 | UUCAGCA | -0.562
88 | UCCUUGG | -0.307
89 | GGUGUGU | 1.42
90 | AUUCCCC | -0.613
91 | CCUGAAU | -0.777
92 | AAGCUGC | -0.508

Row | Sequence | RNAcompete 7-mer binding Z-score
93 | GCGGAGC | 1.35
94 | AGUGCUG | 0.0495
95 | AAUGAUG | 0.261
96 | GCCAUAU | -0.566
97 | ACUGAAA | -0.417
98 | AAAUUUC | -0.61
99 | GCCUGCU | -0.992
100 | UUAGCAC | -0.406
101 | CAGACUG | -0.0962
102 | GAAGUCA | -0.0889
103 | CAGCACG | -0.0343
104 | CAAACGU | -0.34
105 | GUAUUUC | -0.624
106 | AUCUAAU | -0.712
107 | GUGGUUA | 2.17
108 | UGGAGGU | 3.02
109 | GGCAUCC | -0.136
110 | UACGACG | 0.0969
111 | AGGACGG | 2
112 | GCCGACG | -0.0343
113 | UCGAUGG | 0.971
114 | ACAAACC | -0.617
115 | GCCACAA | -0.643

Row | Sequence | RNAcompete 7-mer binding Z-score
116 | CAGGAAU | 1.22
117 | UGCGGUC | -0.00512
118 | GCGCAGA | 0.385
119 | AGAGGGA | 2.16
120 | GAAUGGU | 2.65
121 | CACUAUC | -0.704
122 | CGAAUAG | 0.192
123 | UCUCCGU | -0.806
124 | CUUACCC | -0.81
125 | GAAAUAU | -0.00877
126 | AUGAAGC | 0.119
127 | AUCCGGC | -0.606
128 | CAGCGAA | 0.119
129 | UAGAAUU | -0.333
130 | GUCCUCC | -0.643
131 | UCAGUCG | -0.195
132 | GUGGAGC | 2.47
133 | GUCAGUA | 0.294
134 | UACUAUC | -0.723
135 | GUUGAUG | 0.88
136 | ACAUAGG | 1.48
137 | GCCAAAC | -0.573
138 | CUGUUAC | -0.81

Row | Sequence | RNAcompete 7-mer binding Z-score
139 | CCAUGAC | -0.836
140 | AGAUGUU | -0.267
141 | AGGCAUC | -0.311
142 | UGGAUCG | 0.567
143 | CGGACGG | 1.23
144 | CUCCCUG | -0.664
145 | GACACCC | -0.686
146 | CAAUAGA | 0.476
147 | GGACAAA | 1.48
148 | CGCCACC | -0.595
149 | GAAGGCA | 2.46
150 | UUGUUGG | 0.468
151 | GCGCGAG | 0.421
152 | CGAUACU | -0.803
153 | CGUCCGC | -0.748
154 | UGGUCCA | -0.162
155 | GGCUGGC | 0.417
156 | GCGGUUC | -0.267
157 | UUUAUUC | -0.781
158 | CUCUGGA | -0.504
159 | UCAACGC | -0.584
160 | GGUCCGG | 0.672
161 | GACCAGG | 0.931

Row | Sequence | RNAcompete 7-mer binding Z-score
162 | GUACAGU | 0.385
163 | UGCGUCU | -0.617
164 | UUUUCUC | -0.759
165 | AAUGUGU | 0.439
166 | ACAAAGU | -0.067
167 | GGAGGCG | 3.13
168 | AAUAGUC | -0.191
169 | GAAGCUG | 0.137
170 | AAAAUAC | -0.486
171 | CCGGUGA | 0.235
172 | AUAGCUG | -0.158
173 | AUGGCUU | -0.027
174 | ACGCAAG | 0.0568
175 | ACCAUGC | -0.712
176 | ACCACCG | -0.377
177 | CCUUUUU | -0.999
178 | CGACCAU | -0.879
179 | UACGAGU | -0.0998
180 | UGCUUGA | -0.686
181 | ACUGAAC | -0.624
182 | ACAUAGU | -0.26
183 | AGUGCAC | -0.0124
